Test results: PubChem BioAssay AID1645887 (National Center for Advancing Translational Sciences (NCATS), 2021)
Several values for one entry are separate records, joined by “and”; a condition that tells them apart may be missing. Identical values can stand only once. Among all 16,000 compounds or so, about 40 (0.2%) were called active. Not shown: some 1% with an inconclusive outcome. Calls follow the shape of the dose curve; as a rule, active = well fitted activation curve with a large enough effect; inconclusive = small, poorly fitted or top-dose-only effect, or another doubt; inactive = no such curve, though single readings can be large or run the other way. The list shows a part of the results.

target: Rap guanine nucleotide exchange factor 4 (Homo sapiens) (UniProt Q8WZA2); experiment: Validation qHTS for agonist of cAMP-regulated guanine nucleotide exchange factor 4 (EPAC2); settings: EPAC2 Rap1B BODIPY-GDP exchange, fluorescence; activation: active compounds read high;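 also: exchange makes BODIPY-GDP fluorescence drop when released from Rap1B; series mostly up to about 150 µM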
Method in brief: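 Signal normalized against 6.5 mM cAMP as agonist control. Mix of EPAC2 (100 nM), RAP1B-BODIPY-GDP (250 nM) and GDP (50 uM) was read kinetically at 480/540 nm, every 5 min over 30 min, after 5 min room-temperature incubation with compound.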
% is scaled to controls: 0 for no effect and ±100 for the full control effect.

UniProt Q8WZA2, sequence (Q8WZA2 whole entry, looked up): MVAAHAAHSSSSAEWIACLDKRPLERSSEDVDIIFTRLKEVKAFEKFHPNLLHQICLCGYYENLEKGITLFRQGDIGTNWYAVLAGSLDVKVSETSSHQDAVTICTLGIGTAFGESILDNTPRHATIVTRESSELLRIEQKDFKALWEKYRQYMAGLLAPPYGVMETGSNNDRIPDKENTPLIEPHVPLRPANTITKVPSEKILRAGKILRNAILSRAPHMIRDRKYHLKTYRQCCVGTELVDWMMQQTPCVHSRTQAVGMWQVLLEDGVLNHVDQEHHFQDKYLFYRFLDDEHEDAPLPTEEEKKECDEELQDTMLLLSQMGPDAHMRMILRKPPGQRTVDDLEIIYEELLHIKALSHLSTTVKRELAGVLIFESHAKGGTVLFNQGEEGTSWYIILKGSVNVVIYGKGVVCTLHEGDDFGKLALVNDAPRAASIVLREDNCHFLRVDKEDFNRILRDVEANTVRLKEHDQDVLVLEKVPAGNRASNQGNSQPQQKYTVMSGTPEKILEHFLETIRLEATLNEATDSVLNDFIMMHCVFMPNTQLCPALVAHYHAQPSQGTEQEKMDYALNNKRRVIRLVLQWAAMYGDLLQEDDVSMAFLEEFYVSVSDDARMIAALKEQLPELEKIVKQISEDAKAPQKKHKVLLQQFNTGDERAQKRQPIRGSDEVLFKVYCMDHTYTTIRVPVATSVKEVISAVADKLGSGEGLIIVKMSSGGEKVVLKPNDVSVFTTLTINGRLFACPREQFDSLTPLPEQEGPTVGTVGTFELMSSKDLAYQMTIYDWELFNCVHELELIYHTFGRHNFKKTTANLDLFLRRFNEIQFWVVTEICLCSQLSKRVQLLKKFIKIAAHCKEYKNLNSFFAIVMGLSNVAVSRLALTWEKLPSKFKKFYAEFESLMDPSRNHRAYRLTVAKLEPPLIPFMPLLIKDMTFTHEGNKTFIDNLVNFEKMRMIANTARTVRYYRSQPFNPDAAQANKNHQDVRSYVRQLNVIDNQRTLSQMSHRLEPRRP

activation, inactive:
Cn1c(=O)c(-c2ccc(F)cc2)nc2cnc(Oc3ccccc3)nc21 -17.6%, N#Cc1cccc(NC(=O)N2CC3(CCN(C(=O)c4cc(C(F)(F)F)cc(C(F)(F)F)c4)CC3)C2)c1 -11.2%, Cc1oc(-c2ccccc2NC(=O)C2CCC2)nc1CNC(=O)c1ccccn1 -16.5%, Cc1c(C(=O)NCCc2ccncc2)cnn1-c1nccc(-c2ccccc2C(F)(F)F)n1 -21.1%, CO/N=C1\CN(c2nc3c(cc2F)c(=O)c(C(=O)O)cn3C2CC2)CC1CN (stereo not drawn) -18%, NC(=O)NO -14.3% and -26.2%, Clc1ccccc1C(c1ccccc1)(c1ccccc1)n1ccnc1 -31.2% and -8.84% and -35.2%, O=S(=O)(c1ccccc1)N1CCC2(CC1)CN(C(c1ccccc1)c1ccccc1)C2 14.6%, CNc1ccnc(-c2ccccc2C)n1 -3.3%, O=S1(=O)CCOC[C@H](c2ccccc2)N1Cc1ccccc1F -13.6%, Cc1nn(-c2ccccc2)c(C)c1CC(=O)NCC1Cc2cc(-c3cncnc3)ccc2O1 (stereo not drawn) -20.2%, COc1ccc(-n2c(CNC(=O)c3ccc(OC)cc3OC)nnc2SC)cc1 -13.1%, CCCCCCCCCCCCCCCC(=O)C1=C(O)C(CO)OC1=O (stereo not drawn) -9.54%, CC(C)=CCC/C(C)=C/COc1ccc2ccc(=O)oc2c1 -1.33%, C=CC[N@@+]12CC[C@@]34c5ccccc5N5/C=C6/[C@H]7C[C@H]8[C@@]9(CC[N@@+]8(CC=C)C/C7=C/CO)c7ccccc7N(/C=C(/[C@@H](C[C@@H]31)/C(=C\CO)C2)[C@H]54)[C@@H]69 -0.191%, O=C(C1CCOC1)N1CCOc2ccc(CN3CCC(Oc4cccnc4)CC3)cc2C1 (stereo not drawn) -18.9%, CCCSS/C(CCO)=C(\C)N(C=O)Cc1cnc(C)nc1N 8.63%, COc1cc(CC(=O)O)ccc1O 12.1% and -55.9%, O=C(c1cccc(F)c1)N1CCC2(CC1)CCN(c1ccc(-c3ccccc3)cc1)CC2 1.94%, O=c1[nH]c2cc(Cl)ccc2c(O)c1-c1ccc(Oc2ccccc2)cc1 -23.5%, O=C(c1cccc(F)c1)N1CCC2(CCN(Cc3cc(C(F)(F)F)cc(C(F)(F)F)c3)CC2)CC1 -23%, COc1c(OC)c2occc2c2oc(=O)ccc12 -6.36%, N#C/C(=C\c1cc(Cl)cc(Cl)c1)c1cccnc1 -3.87% and -17.4%, COc1ccccc1N1CCN(C[C@@H](C(=O)NC(C)(C)C)c2ccccc2)CC1 -11.1%, CCOC(=O)c1ccc(OC(=O)CCCCCN=C(N)N)cc1 -14.8% and -27%, CCCC(C(=O)OCCN(CC)CC)(c1ccccc1)c1ccccc1 -3.61% and -13.2%, CN(C)c1ncc2nc(-c3cccs3)c(=O)n(CCc3ccccc3)c2n1 6.09%, CC(=O)CCC(=O)N1CCC(n2c(C3CCCO3)nc3cc(C(F)(F)F)ccc32)CC1 (stereo not drawn) -8.43%, CN1CCC[C@H]1c1cccnc1 -1.82% [middle of 4 runs], O=c1c(-c2cc(F)cc(F)c2)nc2cnc(Oc3ccccc3)nc2n1C[C@H]1CCCO1 -10.1%, COCCn1c(=O)c(-c2ccc(Cl)cc2)nc2cnc(Oc3ccccc3)nc21 5.43%, Cc1cnc(-n2ncc(C(=O)NCCN3CCOCC3)c2C2CC2)nc1-c1cccs1 7.53%, COc1ccc(-n2c(=O)c(-c3ccc(Cl)cc3)nc3cnc(N(C)C)nc32)cc1 -5.08%, CC1(C)CC[C@]2(C(=O)O)C(O)C[C@@]3(C)C(=CCC4[C@@]5(C)CCC(O)C(C)(C)C5CC[C@@]43C)C2C1 (stereo partly drawn) -5.3%, CN1CCCC2(CCN(C(=O)c3cccn3C)CC2)C1 -2.14%, O=C(/C=C/c1ccc(O)c(O)c1)O[C@@H]1C[C@@](OC(=O)/C=C/c2ccc(O)c(O)c2)(C(=O)O)C[C@@H](O)[C@@H]1O -31.8%, CC(C)=CCC/C(C)=C/C=C/C(C)=C/C=C/C(C)=C/C=C/C=C(C)/C=C/C=C(C)/C=C/C=C(\C)CCC=C(C)C -31.9%, CC1=C(/C=C/C(C)=C/C=C/C(C)=C/C(=O)O)C(C)(C)CCC1 -8.08% [middle of 4 runs], CN1CCN(c2ncc3nc(-c4ccccc4)c(=O)n(Cc4cccs4)c3n2)CC1 -3.37%, NC[C@@H]1CC[C@@H](N)[C@@H](O[C@H]2[C@H](O)[C@@H](O[C@H]3O[C@H](CO)[C@@H](O)[C@H](N)[C@H]3O)[C@H](N)C[C@@H]2N)O1 -7.23%, COCCn1c(=O)c(-c2ccc(OC)cc2)nc2cnc(Nc3cccc(OC)c3)nc21 -2.72%, Cc1noc(C)c1C(=O)N1CCC2(CC1)CCN(C(c1ccccc1)c1ccccc1)CC2 -7.8%, CNC(=O)CN(CCN(CCN(CC(=O)[O-])CC(=O)NC)CC(=O)[O-])CC(=O)[O-].O.[Gd+3] 0.276% and -10.5%, CC(=O)OC1CC2C(C)(C)C(=O)C3OC3[C@]2(C)C2CC[C@@]3(C)C(c4ccoc4)OC(=O)C4OC43[C@]12C (stereo partly drawn) -12%, Cn1cc(C(F)(F)F)nc1-c1ccc(OC[C@@H](O)CNCCOc2ccc(O)c(C(N)=O)c2)cc1 -10.7%, COC(=O)/C=C/c1ccc2c(c1)S(=O)(=O)N(C1CCCC1)[C@H]2CC(=O)OC -20.2%, CCCCCC#CCC#CCC#CCC#CCCCC(=O)O 1.63% and -0.659%, CC1=C(C(=O)O)N2C(=O)C(NC(=O)C(N)c3ccc(O)cc3)C2SC1 (stereo not drawn) -25.2%
